Data on 58 sequences can be found in the supplement of paper PMC11417369.

± gives the standard deviation of the averaged measurements. This is one part of the list.

The test system of the assay is PfAP2-LT AP2 domain (GST-tagged). Kind of assay: gcPBM binding intensity (ln(normalized median fluorescence intensity)); higher = stronger DNA binding. The method, boiled down:
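Binding intensity is defined as the maximum Masliner-normalised natural-log median intensity across replicate spots for either probe orientation. It was measured on an Agilent 4 × 180k array of primer-extended double-stranded 36-bp intergenic genomic probes and negative controls, to which GST-tagged P. falciparum DNA-binding domains made in E. coli were applied for 1 h in 1× PBS with 1% milk, 0.2 mg/ml BSA, 0.5% salmon testes DNA and 0.03% Triton X-100. Detection was by Alexa488 anti-GST antibody and scanning at 488 nm.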
As to “TTTTTTTTTTTTTTTGCACACACATAATAGGTACAA [CACACA_site3578]”, the “gcPBM binding intensity (ln)” value came to 9.41 ± 0.3.

Regarding “ATCTTATATGATCACACACACACGCACAAAACAGAA [CACACA_site4913]”, the “gcPBM binding intensity (ln)” value amounted to 9.79 ± 0.2.

With “TAAATATATATATACACACACATACACAAAAAAAAA [CACACA_site3580]”, the “gcPBM binding intensity (ln)” value is 9.51 ± 0.31.

On to “TGTGGTTACATGTGCACACACTTATTTCGTTCTTAT [CACACA_site4907]”, for which the “gcPBM binding intensity (ln)” value is 9.47 ± 0.47.

Consider “ATTGCATATAATGGCACACATAAATCCATAATATAT [CACACA_site297]”, for which the “gcPBM binding intensity (ln)” value was determined as 9.02 ± 0.38.

In the case of “TATTTTTTTTCTTATACACACCATGCATCAAACTAA [CACACA_site5208]”, the “gcPBM binding intensity (ln)” value worked out at 8.77 ± 0.5.

For the sequence “TTTATATATATATATATATATAATAAATGATACACA [TGCATGCA_negctrl_site392]”, the “gcPBM binding intensity (ln)” value came out at 8.91 ± 0.2.

As for “TTTGCACCGTTTAAGTGTACAGAATTATGACATATA [XGTACX_site6735]”, the “gcPBM binding intensity (ln)” value stood at 8.58 ± 0.4.

“TCAAAAATATTCTGGAGTACCTTTTTAAAGGTATAG [XGTACX_site6893]”: the “gcPBM binding intensity (ln)” value worked out at 8.43 ± 0.54.

Take “TAAGTTATATGTATATGTACTTATATATATATATAT [XGTACX_site5402]”: the “gcPBM binding intensity (ln)” value was found to be 8.79 ± 0.29.

Regarding “ATTAAAAAAATTAAAAGTACACATATTTCAATGATA [XGTACX_site5606]”, the “gcPBM binding intensity (ln)” value was 8.43 ± 0.41.

In the case of “TAAAAAAAAAAAAAAACACACATATAAATATATATA [CACACA_site1243]”, the “gcPBM binding intensity (ln)” value came to 8.56 ± 0.52.

“AAAATTAAAAAGAACACACAAATATATCTATAATAA [CACACA_site7660]”: the “gcPBM binding intensity (ln)” value is 8.86 ± 0.5.

With “CAAAATTTATGTAAAAGTACAAAAATATAGAAAGAT [XGTACX_site1122]”, the “gcPBM binding intensity (ln)” value came out at 9.02 ± 0.47.

Consider “TAATCGAAACAAAGAACATGCAAACATATACCTATA [TGCATGCA_site894]”, for which the “gcPBM binding intensity (ln)” value is 8.81 ± 0.45.

On to “TGTGTTCATCTATGCACACGCATATATATTATTGTT [CACACA_site5985]”, for which the “gcPBM binding intensity (ln)” value came to 9.11 ± 0.36.

With “TTTTATTCCTTCTTTGCACACGTTTAAAAATATATA [CACACA_site2899]”, the “gcPBM binding intensity (ln)” value worked out at 8.99 ± 0.38.

For the sequence “AATATAATATAAGGATCACACACAAACACCCATATA [CACACA_site8084]”, the “gcPBM binding intensity (ln)” value was 9.77 ± 0.2.

In the case of “AAAGTATTCTTTACACGTACATATATATAAATATAA [XGTACX_site7557]”, the “gcPBM binding intensity (ln)” value was 8.59 ± 0.33.

For “AATATAAATAATATATGTACATATATATATATATAT [XGTACX_site1021]”, the “gcPBM binding intensity (ln)” value amounted to 9.47 ± 0.071.

Consider “TTTGTATATATTAATGTACACACATGCGTATGTTCG [CACACA_site9193]”, for which the “gcPBM binding intensity (ln)” value came to 9.36 ± 0.39.

On to “AATATAGATATAAAAAGTACATTATATATATATATA [XGTACX_site6899]”, for which the “gcPBM binding intensity (ln)” value is 9.14 ± 0.25.

In the case of “ATGACTCTCAAGTTTGCACACATTTATATTTTTTAA [CACACA_site2605]”, the “gcPBM binding intensity (ln)” value turned out to be 9.13 ± 0.33.

Consider “TATACATACCATAATGCATGTAAGAACAAATAACTG [TGCATGCA_site264]”, for which the “gcPBM binding intensity (ln)” value came to 8.85 ± 0.42.

In the case of “AAAAAAAAAAAAAAGGTGCATACTTTGAATTAATAT [GTGCAC_site9401]”, the “gcPBM binding intensity (ln)” value turned out to be 8.61 ± 0.54.

Consider “ACAAAATTTACAAAATGTACAAAATTTACAAAGTAT [XGTACX_site6463]”, for which the “gcPBM binding intensity (ln)” value came out at 8.79 ± 0.43.

As for “GTATATCATATTTCATGTACACAAAAAAATAAAAAT [XGTACX_site704]”, the “gcPBM binding intensity (ln)” value was determined as 8.91 ± 0.44.

Regarding “TATATATATTATATATGTACATATTATATATATATA [XGTACX_site7300]”, the “gcPBM binding intensity (ln)” value was 8.6 ± 0.35.

In the case of “ATATATTTGATAAGAGTGCACAAATACATACATACA [GTGCAC_site9704]”, the “gcPBM binding intensity (ln)” value came to 9.14 ± 0.31.

On to TTTAAAATACAGAAGGTGCATTTAACATATTTGTAT, for which the “gcPBM binding intensity (ln)” value amounted to 8.59 ± 0.4.

As to “TATATATATAAACACACACACATATATATATATATA [CACACA_site4584]”, the “gcPBM binding intensity (ln)” value was 9.94 ± 0.14.

Take “AAAAAAAAAAAATGCACACATATATTTCCATATACA [CACACA_site1471]”: the “gcPBM binding intensity (ln)” value was 8.95 ± 0.36.

With “ATATATATATATATATGTACTAATTAATATTTCGAG [XGTACX_site580]”, the “gcPBM binding intensity (ln)” value was determined as 9.47 ± 0.028.

“ATAAAATAATGAAAAACACACATTTTTATTTGTATA [CACACA_site3369]”: the “gcPBM binding intensity (ln)” value was found to be 8.69 ± 0.42.

Consider “ATATATATATATGAATCACACACAAAAAATATAGAG [CACACA_site9298]”, for which the “gcPBM binding intensity (ln)” value worked out at 9.39 ± 0.26.

“AATAACATGTTATATACACACATTATGAAGTCTTCA [CACACA_site746]”: the “gcPBM binding intensity (ln)” value came to 9.02 ± 0.35.

Take “AAGATTATAAATATATGTACATAAATATATTATATA [XGTACX_site8056]”: the “gcPBM binding intensity (ln)” value was determined as 8.62 ± 0.52.

Regarding “ATTGTTTTTTTTTCTTTGTGGAATGAATGAATATAT [XGTACX_negctrl_site603]”, the “gcPBM binding intensity (ln)” value worked out at 8.71 ± 0.41.

On to “TTTTTTTTTTCAATGGCACACATTTTAGATTTATGC [CACACA_site1074]”, for which the “gcPBM binding intensity (ln)” value was found to be 8.88 ± 0.45.

With GTTTTAACAAAATTAGTGCATTTATCAATTATATAA, the “gcPBM binding intensity (ln)” value was determined as 8.32 ± 0.46.

For the sequence “ATAATACTACCTACATGTACTTATATATAAATGAAT [XGTACX_site3417]”, the “gcPBM binding intensity (ln)” value was 9.1 ± 0.34.

Take AAAGAATCAAGAATAGTGCAAATATGTATAACCTTT: the “gcPBM binding intensity (ln)” value was 9.01 ± 0.51.

Turning to “ACATCAAGCGGACACACACACACACCGACAGACACA [CACACA_site4361]”, the “gcPBM binding intensity (ln)” value came to 10.2 ± 0.33.

Consider “AAAATACATAAACGTTCACACATTGAAGATCACAAG [CACACA_site5347]”, for which the “gcPBM binding intensity (ln)” value stood at 9.1 ± 0.45.

On to TAGGTACATAAATTGGTGCAAAGTGTACATATATAT, for which the “gcPBM binding intensity (ln)” value was determined as 9.14 ± 0.47.

Turning to “AATTTTAATTATATCACACATAATATATACCAAAAA [CACACA_site6011]”, the “gcPBM binding intensity (ln)” value came out at 8.54 ± 0.38.

As to “AAAAAAAAAAGACACACACACACACGGAGATATATA [CACACA_site6216]”, the “gcPBM binding intensity (ln)” value stood at 10.4 ± 0.19.

In the case of “TTTAATACTTTTTTCTGTACACACTTGATTTACTAT [XGTACX_site5925]”, the “gcPBM binding intensity (ln)” value is 9.11 ± 0.39.

In the case of “TACATATTTTTATATACACACAATAATTACTATAAA [CACACA_site6879]”, the “gcPBM binding intensity (ln)” value worked out at 8.64 ± 0.38.

As for “CAAAATATAAAAACATGTACATAAATATTAACGAAT [XGTACX_site2380]”, the “gcPBM binding intensity (ln)” value stood at 9.12 ± 0.36.

On to “TCATCCACATATTGTAGTACAAGATAATTGTTTATT [XGTACX_site1634]”, for which the “gcPBM binding intensity (ln)” value was found to be 8.76 ± 0.42.

As to “ATATGTTTATTAAATGCATGTCAAGACTTAAGATAT [TGCATGCA_site329]”, the “gcPBM binding intensity (ln)” value worked out at 8.79 ± 0.42.

Regarding AAAAATACAATTTTCTTGCACTTTGTTGCATTGTAA, the “gcPBM binding intensity (ln)” value amounted to 8.88 ± 0.45.

With “AACATATACACGAACACACACACATATAAATAAATA [CACACA_site6380]”, the “gcPBM binding intensity (ln)” value worked out at 9.87 ± 0.23.

As to “CAAAAAATGAAACACACACACACACCCATAAATAAA [CACACA_site1231]”, the “gcPBM binding intensity (ln)” value came out at 10.12 ± 0.035.

As to TCATATATAAAAAGGGTGCTTTTAAAAGAATGGATT, the “gcPBM binding intensity (ln)” value stood at 8.7 ± 0.51.

Take “AATATTTTTTGTTTTACACACATATATAGATATATA [CACACA_site7662]”: the “gcPBM binding intensity (ln)” value was determined as 9.01 ± 0.28.

In the case of “CAGATATTTGTTCATATACACACTTTTGATAAAATA [CACACA_site1219]”, the “gcPBM binding intensity (ln)” value amounted to 8.76 ± 0.38.
